Experimental data: the supplement of paper PMC3334620
The full ranking holds about 33,000 sequences; the median of “E-score (-0.5 to 0.5)” is about -0.032, and the highest 2% start at about 0.36. The list shows a part of the results.

molecular target: T1, Sko1 (UniProt Q02100); assay: PBM E-score (8-mer binding enrichment) (E-score (-0.5 to 0.5)); higher = stronger / more preferred TF binding; most listed sequences are background and not binding sites; conditions: protein concentration: 200 nM; construct: GST-full length
T1 sequence: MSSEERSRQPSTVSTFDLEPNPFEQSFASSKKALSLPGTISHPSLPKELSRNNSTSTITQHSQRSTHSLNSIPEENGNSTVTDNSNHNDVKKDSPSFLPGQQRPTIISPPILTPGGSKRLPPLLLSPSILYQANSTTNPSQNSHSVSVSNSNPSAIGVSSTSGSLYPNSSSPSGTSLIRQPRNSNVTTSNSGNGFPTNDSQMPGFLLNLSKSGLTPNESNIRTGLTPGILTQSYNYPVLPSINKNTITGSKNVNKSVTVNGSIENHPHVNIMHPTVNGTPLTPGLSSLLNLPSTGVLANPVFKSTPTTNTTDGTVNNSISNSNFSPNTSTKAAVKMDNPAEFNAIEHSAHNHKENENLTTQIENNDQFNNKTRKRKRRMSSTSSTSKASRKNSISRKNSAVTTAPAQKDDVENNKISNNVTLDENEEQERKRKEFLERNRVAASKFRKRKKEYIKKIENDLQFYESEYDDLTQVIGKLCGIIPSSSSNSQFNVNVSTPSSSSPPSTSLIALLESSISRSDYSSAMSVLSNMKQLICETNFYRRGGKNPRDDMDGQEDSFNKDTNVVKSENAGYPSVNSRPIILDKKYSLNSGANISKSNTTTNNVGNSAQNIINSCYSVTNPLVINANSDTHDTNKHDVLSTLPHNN
Procedure: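 Universal 'all 10-mer' protein binding microarrays (Agilent AMADID 015681) probed with GST-tagged S. cerevisiae TFs (full-length or DBD) made by in vitro transcription/translation (PURExpress), about 100-200 nM. Bound TF was detected with fluorescent anti-GST. Each ungapped 8-mer (which stands for itself and its reverse complement) is scored by the PBM enrichment score (E-score), a modified Wilcoxon-Mann-Whitney statistic from -0.5 to +0.5, computed with the Universal PBM Analysis Suite. Scale: above 0.35 generally sequence-specific binding.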

Sequence	PBM E-score
CTGCTCAA	-0.157
AACCATAG	-0.139
ACTGTGAC	0.151
GGCAAGCA	-0.125
CATTCCAC	0.00783
AACTCCAG	-0.205
GGCTTAGA	-0.178
ACAGTCGG	-0.107
CTTAGTTA	-0.0251
GGATGACA	0.147
ATCCAAGG	-0.146
TAACACGA	0.217
AGTCCTAA	-0.0224
TGGACTAA	-0.0408
ACACACGT	0.433
AGCAAAAA	0.192
CTTCCGTA	0.0767
ACGTAATC	0.492
ACTATCGG	-0.148
CAATGTCA	0.182
CCGAGGCG	-0.274
TCACGGCA	-0.0122
ACTCTGTG	-0.254
CCACATCA	0.175
ATGGATTC	-0.0896

Sequence	PBM E-score
AACCCCGG	-0.229
ACCCCTGA	-0.165
CGGTGCCC	-0.159
AATTGAGT	0.0639
CTGTAACA	-0.231
AAAAAAGT	0.12
AAGGTCAT	0.00907
GAATGGCC	-0.181
CTCCGGTC	-0.346
CATCGAGC	-0.235
CAGTCGTC	0.0351
CCTCCTGA	-0.0476
CTACTTAA	0.0276
CATTCAAG	-0.142
CCTCCGTA	-0.171
AGTCCTAG	-0.248
GAGTATGC	0.0286
GGCTCACA	-0.118
GACACGTA	0.44
AAGGACCG	-0.122
AGCGTCTC	-0.282
CAGCGTAG	-0.0288
CATGTCGG	-0.103
ACTTGACC	-0.156
ACCGTGAC	0.126

Sequence	PBM E-score
CGTGGTAC	0.213
TCCATACA	0.0575
AAAAATGG	0.0332
TATTTCCA	0.066
CTATAGCA	-0.0339
AGGAGAGC	-0.197
AAGCGTTG	-0.0657
AGAAGACA	0.124
CGGAGCCC	-0.374
ATACAGTA	0.204
CCGGGCAG	-0.321
CAGCCGCG	-0.14
AGACATAC	0.135
AGAGGCAT	-0.0275
CCAGCAAC	0.041
CGGATTTA	-0.0418
AGTGTGAA	0.0125
AGCGTCCG	-0.0937
GAATGTTA	-0.0561
ATGCATCG	0.0283
AAAGAGAC	0.0001
ACGGCGAC	-0.0729
AATTTAGG	0.234
AAGCATAA	0.172
ACTCCGGC	0.0335

Sequence	PBM E-score
GATGCTAA	-0.00505
ATCGTAGC	0.2
GACAACTA	0.132
AGCTAGAC	-0.0286
ACGAGCCT	-0.11
ACCAGCAA	-0.107
CTACCCTC	-0.192
GCCCTCGA	-0.152
CGTAGGCC	0.149
AGCGTATC	-0.0128
GATTGGCA	-0.0176
TCAATCCA	0.0285
GCACCCAA	-0.211
CTAAGCAG	-0.21
ATGGGTTG	-0.0519
GTCATGTA	0.255
GCGATCAA	-0.00541
ATGAGATA	0.161
CCGGTCCG	-0.31
CCCGTCTC	-0.256
TCCGAGGA	-0.19
GGACTTAC	-0.0203
CTAGTCGC	-0.327
CAGGAACA	0.00796
CTAGACAA	-0.00983

Sequence	PBM E-score
AGGGGGGC	-0.328
GACGTGAA	0.358
GAAGCGGC	-0.279
AACTAGCC	-0.17
ACAGCAAG	0.0393
ACGGCCCC	-0.251
ATTTACAA	0.209
TCCGTCAA	0.0302
ATAACTTG	0.00977
AATTTCAG	0.0849
AATAACCG	0.019
CCTTGCCC	-0.231
AAAACTTA	0.159
AGCCAAGG	-0.135
TACATATA	0.253
TCACAGGA	0.00446
CCATCTTC	0.072
TGTTGTAA	0.198
AGACTAGA	-0.152
GGTCCGAA	-0.0412
ACACCAAC	-0.0153
GCGGAACC	-0.28
ACGCTACA	0.0785
CAACGTGA	0.182
ATGATGCG	0.31

Sequence	PBM E-score
CCCGAGTC	-0.18
CCGCGCCG	-0.269
AATCCTTC	-0.151
CACACCAC	0.12
TACGTTCA	0.374
AAACTGCG	-0.0403
ATGCGCGG	-0.0905
GTTTGTTA	0.206
ATTGATCG	0.0452
ATGGCAGA	-0.00965
CACGTACG	0.406
AGACGGTC	-0.12
TGAGAGAA	0.125
GTCACAGA	0.234
ATAGCGAA	0.221
CCCTCTAA	-0.193
CAACTCGC	0.0082
ACCTAGAT	-0.00297
CGTCCGTA	0.193
CTTGTCCA	-0.149
CAACAATC	0.149
TAGGCCGA	-0.218
CTTATTTA	0.00976
CCAATACC	-0.194
GCACCGGA	-0.289

Sequence	PBM E-score
CGAGTGGA	-0.154
CAACATGC	0.138
CTGTTTTA	0.035
AAAAGGTC	-0.18
CGGCGCGC	-0.0172
ATCCAAAC	0.149
AGATTCAC	0.00396
AACCAGCC	-0.271
TATATGGA	-0.0394
TACGCTAA	0.234
ACGTGTTC	0.36
CATCAGCG	0.0431
CAAAAAAA	0.187
AGTTCCAC	-0.143
CCGTAGAC	-0.135
ACCTTCCT	-0.223
AACCCCTC	-0.296
CAATAACG	0.287
CCCGATAA	0.0292
TCTGTGAA	-0.0754
CCAAGTGG	-0.213
TATATTCA	0.217
GTATTGCA	0.0688
CGCTCGGA	-0.188
CAGTTATA	-0.0005

Sequence	PBM E-score
TAGTACCA	-0.0841
AGTCGACG	0.192
AGAGCACC	-0.328
ATTAACTC	0.157
GCCGTGAA	-0.0961
TGGCGCAA	0.156
GGTGTCTA	0.0212
AGGGTAGC	-0.121
AGATTAAG	0.118
GGGTGAAA	0.0819
AGCCGAGC	-0.303
CATGCGTC	0.161
ATATCTCG	0.101
GAGCGTCA	0.233
CGGTATGA	0.22
GAGCGAAC	-0.212
TCAATACA	0.258
GTGTGCTA	-0.0545
ATAACACC	0.134
AAGAGTCA	-0.0261
AATGAAAG	0.111
AGCGAGTG	-0.0868
AAGTTACT	0.00332
GTTGACCA	-0.235
CCTAGAGG	-0.305

Sequence	PBM E-score
CGTACGGA	0.169
ACTATACC	-0.0667
ATAAGCAG	-0.0649
ACCCGGGC	-0.374
ATCCTCGC	-0.219
CGCGCGCA	0.222
GCACGTCC	0.0489
TGTTCTAA	0.161
AACGGGAC	-0.261
CACCCCGA	-0.277
GTAGGATA	-0.0561
ACGAGAAG	0.0444
CTAGTACC	-0.144
ATGAAGTC	-0.0237
TAAGCATA	0.192
AATCCACG	0.181
AAATGGTT	-0.105
AATATAAC	0.158
CGCCCGAC	-0.18
